Test results from PubChem BioAssay AID1466 (National Center for Advancing Translational Sciences (NCATS), 2008).
In all, about 200,000 compounds went through this assay and about 10 (0.005%) were called active. The inconclusive results got no clear call from the source; some entries with a clear call stand among them for comparison. Calls follow the shape of the dose curve; as a rule, active = well fitted inhibition curve with a large enough effect; inconclusive = small, poorly fitted or top-dose-only effect, or effect the other way, or another doubt; inactive = no such curve, though single readings can be large or run the other way. Where the call is inconclusive, the potency comes from a doubtful curve fit.

Biological target: Lysosomal alpha-glucosidase (Homo sapiens) (UniProt P10253)
Assay: qHTS Assay for Inhibitors of Human alpha-Glucosidase as a Potential Chaperone Treatment of Pompe Disease;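 as to activity change, negative = inhibition: plate controls were uninhibited enzyme wells for no effect and no-enzyme background for full effect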
Details: purified human GAA, 4-MU-alpha-glucoside fluorescence; activity change, negative = inhibition: at 76.9 µM (top of the series) unless noted
Summary of the method: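 Endpoint fluorogenic read: 20 min room-temperature reaction of 4 nM human alpha-glucosidase with 400 uM 4-methylumbelliferyl-alpha-D-pyranoside, pH 5.0, quenched with 1M NaOH/1M glycine pH 10. AC50 from Hill modeling.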
Potency is read from the fitted curve at half-maximal effect; tags tell the direction and shape of the fitted curve.

| Structure (SMILES) | Potency | activity change, negative = inhibition |
| --- | --- | --- |
| COC(=O)C1=CN(C2CC2)C=C(C(=O)OC)C1c1ccccc1OC | inconclusive: 35.5 µM [activator, partial curve] | – |
| O=C(CSc1nc2cc([N+](=O)[O-])ccc2n1-c1ccc(F)cc1)NC1CCS(=O)(=O)C1 (centres undefined) | inconclusive: 39.8 µM [inhibitor, single point] | – |
| C=CCSC1=C(C#N)C(c2ccccc2OCC)CC(=O)N1 (centres undefined) | inconclusive: 56.2 µM [inhibitor, single point] | – |
| COc1ccc(OC)c(Nc2nc(-c3sc(NC(=O)c4ccccc4)nc3C)cs2)c1 | inconclusive: 56.2 µM [inhibitor, single point] | – |
| Cc1ccc(NC(=O)N(Cc2ccco2)Cc2cc3cc(C)cc(C)c3nc2Cl)cc1 | inconclusive: 3.98 µM [inhibitor, single point] | – |
| CCOc1ccc(CNc2ccc(N3CCCC3)cc2)cc1 | inconclusive: 6.31 µM [inhibitor, single point] | – |
| Cc1cccc(N(CC(=O)NCc2ccc3c(c2)OCO3)C(=O)CCC(=O)Nc2ccccn2)c1C | – | inactive: -6.18% |
| O=C(CSc1ncnc2c1oc1ccccc12)Nc1cccc(Cl)c1 | inconclusive: 50.1 µM [inhibitor, partial curve, poor fit] | – |
| COC(=O)c1cc(NCc2ccccc2F)ccc1N1CCOCC1 | – | inactive: -1.36% |
| CCOC(=O)C1=C(CSc2nc3c(cc2C#N)CN(C)CC3)OC(N)=C(C#N)C1c1ccc(Cl)cc1 (centres undefined) | inconclusive: 44.7 µM [inhibitor, single point] | – |
| COc1ccc(C(=O)Cn2nnc(-c3ccccc3NC(=O)C3CC3)n2)cc1 | inconclusive: 56.2 µM [inhibitor, single point] | – |
| OCC1CCCN(C(=S)Nc2ccc(OC(F)F)cc2)C1 (centres undefined) | – | inactive: 2.66% |
| CCc1ccc(N(C(=O)CCC(=O)Nc2cc(C)on2)C(C(=O)NC2CCCC2)c2ccco2)cc1 (centres undefined) | inconclusive: 50.1 µM [inhibitor, partial curve, poor fit] | – |
| CCOC(=O)C1(C)NC(c2ccc(N(C)C)cc2)C2C(=O)N(CC)C(=O)C21 (centres undefined) | – | inconclusive: -16% [inhibitor] |
| CC[n+]1ccc(C[n+]2ccccc2)c2ccccc21 | inconclusive: 7.08 µM [inhibitor, full curve, poor fit] | – |
| O=C1/C(=C/c2cccs2)CCC1C1CCCC1 (centres undefined) | – | inactive: -10.7% |
| CCC(NC(=O)C1CCC1)c1ccc(C)cc1 (centres undefined) | – | inconclusive: -18.3% [inhibitor] |
| CCOc1ccc(N2C(=O)c3ccc(C(=O)OCC(=O)N(CC)C4CCS(=O)(=O)C4)cc3C2=O)cc1 (centres undefined) | inconclusive: 56.2 µM [inhibitor, single point] | – |
| COc1ccc(NC(=S)N(CCc2c(C)[nH]c3ccc(C)cc23)Cc2ccco2)cc1 | – | inactive: -4.52% |
| N#CCCN(Cc1cccs1)C(=O)c1ccc(Cl)cc1 | – | inconclusive: -15.1% [inhibitor] [at 15.4 µM] |
| C(=N\Nc1nc(-c2ccccc2)cs1)/c1cccs1 | inconclusive: 35.5 µM [inhibitor, partial curve] | – |
| N#CC1=C(SCC(=O)c2ccccc2)NC2=C(C(=O)CCC2)C1c1ccco1 (centres undefined) | inconclusive: 50.1 µM [inhibitor, single point] | – |

| Structure (SMILES) | Potency | activity change, negative = inhibition |
| --- | --- | --- |
| COc1ccc(NC(=O)C2=C(C)NC(=O)NC2c2cccs2)c(OC)c1 (centres undefined) | inconclusive: 1.12 µM [inhibitor, partial curve] | – |
| Fc1ccc(Cl)cc1/C=N/n1cnnc1SCc1ccccc1 | inconclusive: 12.6 µM [inhibitor, partial curve] | – |
| COc1ccc(-n2c(C)c(C(C)=O)c(C(C)=O)c2C)cc1OC | inconclusive: 2.82 µM [inhibitor, partial curve, poor fit] | – |
| N#Cc1c(N)nc2c(c1-c1ccc3c(c1)OCO3)CCc1ccccc1-2 | inconclusive: 11.2 µM [activator, single point] | – |
| COc1cc2c(cc1NC(=O)c1cc(-c3cccnc3)nc3ccc(C)cc13)oc1ccccc12 | inconclusive: 50.1 µM [inhibitor, partial curve, poor fit] | – |
| COc1cc(/C=C(\C#N)c2nc3ccccc3[nH]2)ccc1OC(=O)c1ccco1 | inconclusive: 28.2 µM [inhibitor, single point] | – |
| CCOc1cc(NC(=S)NCCCN2CCOCC2)c(OCC)cc1NC(=O)c1ccc(OC)cc1 | – | inconclusive: 13.8% [activator] |
| CCCCN(Cc1cc2cc(OC)ccc2[nH]c1=O)C(=O)c1ccccn1 | inconclusive: 28.2 µM [activator, partial curve, poor fit] | – |
| O=C(OCC(=O)N1CCN(C(=O)c2ccco2)CC1)c1cc(-c2cccc(Br)c2)nc2ccccc12 | inconclusive: 7.08 µM [inhibitor, single point] | – |
| COc1cc(/C=C/C(=O)c2c(O)cc(C)oc2=O)cc(OC)c1O | inconclusive: 50.1 µM [inhibitor, partial curve, poor fit] | – |
| Cc1ccc(C2NC(=O)NC3=C2CCc2ccccc23)cc1 (centres undefined) | inconclusive: 35.5 µM [activator, single point] | – |
| CC(C(=O)Nc1ccc2c(c1)OCO2)c1ccc([N+](=O)[O-])cc1 (centres undefined) | – | inconclusive: 16.2% [activator] |
| Cc1ccc(NC(=O)C2(c3cccs3)CCOCC2)cc1C | inconclusive: 35.5 µM [inhibitor, single point] | – |
| O=C(Nc1nc(-c2cc3ccccc3o2)cs1)c1ccc(S(=O)(=O)N2CCCC2)cc1 | inconclusive: 7.08 µM [inhibitor, partial curve] | – |
| O=C1NN(c2ccccc2)C(=O)/C1=C\c1ccccc1OCC(=O)N1CCOCC1 | – | inconclusive: 12.8% [activator] |
| CC1CC(=O)Nc2ccccc2N1S(=O)(=O)c1cccs1 (centres undefined) | – | inactive: -6.42% |
| CC1=CC2(O)OCCN(CCO)C2=CC1=O (centres undefined) | – | inactive: -6.63% [at 15.4 µM] |
| Cc1cc(NCCCO)n2c(nc3ccccc32)c1C#N | inconclusive: 35.5 µM [activator, partial curve] | – |
| Cc1ccc(C(=O)NNC(=O)C2CCN(Cc3ccccc3)CC2)cc1 | inconclusive: 25.1 µM [inhibitor, partial curve] | – |
| O=C1CC(Nc2ccc3ccccc3c2)C(=O)N1Cc1ccccc1 (centres undefined) | – | inactive: -0.503% |
| N#Cc1c(NC2CCCCC2)nc(-c2ccco2)c2c1CCCC2 | inconclusive: 35.5 µM [activator, partial curve] | – |
| Cc1ccc(N(CC(=O)N2CCN(C3CCCCC3)CC2)S(=O)(=O)c2cccnc2)cc1 | – | inconclusive: 14.1% [activator] |

| Structure (SMILES) | Potency | activity change, negative = inhibition |
| --- | --- | --- |
| Cc1oc(-c2ccccc2F)nc1CS(=O)(=O)CC(=O)NCCN(C)C1CCCCC1 | inconclusive: 56.2 µM [inhibitor, single point] | – |
| COc1cccc(-c2nnc(SCC(=O)Nc3ccc4c(c3)OCCO4)n2Cc2ccco2)c1 | inconclusive: 6.31 µM [inhibitor, partial curve, poor fit] | – |
| Cc1cc(C)cc(OCC(=O)Nc2ccccc2N2CCCCC2)c1 | inconclusive: 39.8 µM [inhibitor, single point] | – |
| CCOC(=O)c1oc2ccc(/C=N/O)c(Cl)c2c1C | – | inconclusive: 16.4% [activator] |
| CC(C)c1ccc(-c2cc(C(=O)N3N=C(C(F)F)CC3(O)C(F)F)c3ccccc3n2)cc1 (centres undefined) | inconclusive: 1.41 µM [inhibitor, full curve, poor fit] | – |
| CCC(=O)Nc1c(S(=O)(=O)c2ccccc2)c2nc3ccccc3nc2n1Cc1ccccc1 | inconclusive: 39.8 µM [activator, partial curve] | – |
| O=C(C[n+]1cn(C(F)F)c2ccccc21)c1ccc(OC(F)F)cc1 | inconclusive: 3.55 µM [activator, single point] | – |
| COC(=O)C1=C(C)NC(=O)NC1c1ccc(OC(=O)c2ccco2)cc1 (centres undefined) | – | inconclusive: 19.3% [activator] |
| O=C(c1cccs1)N1CCC(C(=O)N2CCN(Cc3ccc4c(c3)OCO4)CC2)CC1 | inconclusive: 5.01 µM [inhibitor, single point] | – |
| CCOC(=O)c1c(C)nc2sc3c(=O)n(-c4ccc(C(C)=O)cc4)cnc3c2c1-c1ccc(OC)cc1 | inconclusive: 35.5 µM [inhibitor, single point] | – |
| O=C(NCCn1cccn1)c1ccc(OC2CCN(C(=O)C3CC3)CC2)cc1 | – | inconclusive: 16.1% [activator] |
| NCCc1ccc(O)c(O)c1 | – | inactive: 5.52% [at 15.4 µM] |
| N#Cc1nc(-c2ccco2)oc1N1CCN(c2ccccc2)CC1 | – | inconclusive: -17.7% [inhibitor] |
| O=S(=O)(N1CCOCC1)n1cnc2ccccc21 | – | inconclusive: -17% [inhibitor] |
| CS(=O)(=O)Nc1nnc(SCC(=O)Nc2cccc([N+](=O)[O-])c2)s1 | inconclusive: 35.5 µM [inhibitor, single point] | – |
| CCC(C)OC(=O)c1[nH]c2c(c1C)C(=O)CC(c1ccc(N(C)C)cc1)C2 (centres undefined) | inconclusive: 2.24 µM [inhibitor, full curve, poor fit] | – |
| COC(=O)c1cc(-c2ccccc2)n[nH]1 | inconclusive: 11.2 µM [inhibitor, single point] | – |
| COc1ccc(C)cc1S(=O)(=O)N(C)CC(=O)Nc1ccc2c(c1)OCCO2 | inconclusive: 35.5 µM [inhibitor, single point] | – |
| COC(=O)CSc1ncccc1-c1nc2ccccc2[nH]1 | inconclusive: 56.2 µM [inhibitor, single point] | – |
| Cc1cc(C)c2cc(CN(CCN(C)C)C(=O)Nc3ccccc3Cl)c(=O)[nH]c2c1 | – | inconclusive: -18.3% [inhibitor] |
